From the RNAGym collection of RNA variant scans (doi:10.1093/nar/gkz1192)
The source gives no read counts; variants with many changes may rest on few reads.

B1: CPEB3 Ribozyme (parent)
chain: UAACAGGGGGCCACAGCAGAAGCGUUCACGUCGCAGCCCCUGUCAGAUUCUGGUGAAUCUGCGAAUUCUGCUGUAUAUCUC

Variants of: B1
Assay: self-cleavage, relative activity (ratio to wild type); higher = more cleavage; in vitro, sequencing
Summary of the method: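 Libraries of CPEB3 self-cleaving ribozyme mutants came from rounds of error-prone PCR and carried barcodes, which DNA sequencing matched to variants. In vitro transcription used T7 RNA polymerase at 37°C for 5 hours, with a further 15 min in DNase I before EDTA stopped the reaction; the ribozymes cleaved during both steps. The RNA was reverse transcribed with template switching and sequenced on Illumina. Relative activity is the cleaved/total read fraction of a variant divided by that of the unmutated ribozyme, averaged over three batches with at least 5 reads.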

| Variant | self-cleavage |
| --- | --- |
| UAACAGGGGGCCACCGCAGAAGCGUUCACGUCGCAGCCCCUGUCAGAUUCUGGUGAAUCUGCGAACUCAGCUGUAUAUCUC [A15C U66C U69A] | 0.12 |
| UAACAGGGGGCCACCGCAGAAGCGUUCACGUCGCAGCCCCUGUCAGAUUCUGGUGAAUCUGCGAAUCCUGCCGUAUAUCUC [A15C U67C U72C] | 0.1 |
| UAACAGGGGGCCACCGCAGAAGCGUUCACGUCGCAGCCCCUGUCAGAUUCUGGUGAAUCUGCGAAUUCUGCCAUAUAUCUC [A15C U72C G73A] | 1.28 |
| UAACAGGGGGCCACGGCCAAAGCGUUCACGUCGCAGCCCCAGUCAGAUUCUGGUGAAUCUGCGCAUUCUGCUGUAUAUCUC [A15G A18C G19A U41A A64C] | 0.17 |
| UAACAGGGGGCCACGGCCGAAGCGUUCACGACGCAGCCCCUGUCAGAUUCUGGUGAACCUGCGAAUUCUGCUGUAUAUCUC [A15G A18C U31A U58C] | 0.07 |
| UAACAGGGGGCCACGGCCGAAGCGUUCACGUCGCAGCCCCCGUCAGUUCCUGGUGAAUCCGCUAAUUCUGCUGUAUAUCUC [A15G A18C U41C A47U U49C U60C G63U] | 0.18 |
| UAACAGGGGGCCACGGCCGAAGCGUUCACGUCGCAGCCCCUGUCAGAUUCCGGUGAAUCUGCGACUUCUGCUGUAUAUCUC [A15G A18C U51C A65C] | 0.06 |
| UAACAGGGGGCCACGGCGGGAGCGUUCACGUAGCAGCCCCUGCCAGAUUCUGGUGAAUCUGCGAAUUCUGCUGUAUAUCUC [A15G A18G A20G C32A U43C] | 0.04 |
| UAACAGGGGGCCACGGCGGUUGCGUUCACGACGCAGCCCCUGUCAGAUUCCGGUGAACCUGCGAAUUCUGCUGUAUAUCUC [A15G A18G A20U A21U U31A U51C U58C] | 0.04 |
| UAACAGGGGGCCACGGCGGUAGCGUUCACGUCGCAGCUCCUGUCAGAUUCUGGUGAAUCUGCGAAUUAUGCUGUAUAUCUC [A15G A18G A20U C38U C68A] | 0.11 |
| UAACAGGGGGCCACGGCGGUAGCGUUCACGUCGCAGCCCCUGUCAGAUUCUGGUGAAUCUGAGAAUUCUGCCGUAUAUCUC [A15G A18G A20U C62A U72C] | 0.05 |
| UAACAGGGGGCCACGGCGGUAGCCUUCACGUCGCAGCUCCUGUCAGAUUCUGGUGAAUCUGCGAAUUCUGCUGUAUAUCUC [A15G A18G A20U G24C C38U] | 0.12 |
| UAACAGGGGGCCACGGCGGAGGCGUUCACGUCGCAGCCCCUGUCAGAUUCUGGUGAGUCUGCGAAUUCAGCCGUAUAUCUC [A15G A18G A21G A57G U69A U72C] | 0.27 |
| UAACAGGGGGCCACGGCGGAGGCGUUCACGUCGCAGCCCUUGUCAGAUGCUGGUGAAUCUGCGAAUUCUGCUGUAUAUCUC [A15G A18G A21G C40U U49G] | 0.06 |
| UAACAGGGGGCCACGGCGGAGGCGUUCACGUCGCAGCCCCUUUCAGAUUCCGGUGAAUCUGCGAAUUCUGCUGUAUAUCUC [A15G A18G A21G G42U U51C] | 0.18 |
| UAACAGGGGGCCACGGCGGAAGCGUUCGCGUCGCAGCCCCUGUCAGAUUCUGGUGAAUCUACGAAUCCUGCUGUAUAUCUC [A15G A18G A28G G61A U67C] | 0.2 |
| UAACAGGGGGCCACGGCGGAAGCGUUCGCGUCGCAGCCCCUGUCAGAUUCUGGAGAGUCUGCGAAUUCUGCUGUAUAUCUC [A15G A18G A28G U54A A57G] | 0.13 |

| Variant | self-cleavage |
| --- | --- |
| UAACAGGGGGCCACGGCGGAAGCGUUCACGUCGCUGCCCCCGUCAGAUUCUGGUGAAUCUGCGAACUCUGCUGUAUAUCCC [A15G A18G A35U U41C U66C U80C] | 0.21 |
| UAACAGGGGGCCACGGCGGAAGCGUUCACGUCGCAGCCCCUGUCAGGUUCUGGUGAAUCUGCGAAUUCUGCAGUAUAACUC [A15G A18G A47G U72A U78A] | 0.16 |
| UAACAGGGGGCCACGGCGGAAGCGUUCACGUCGCAGCCCCUGUCAGAUUCUGGUGAAUCUGCGUAUUCUGCUGUAUAACUC [A15G A18G A64U U78A] | 0.25 |
| UAACAGGGGGCCACGGCGGAAGCGUUCACGUCGCAGCCCCUGUCAGAUUCUGGUGAAUCUGCGAAUUCUGCUGUUUAACUC [A15G A18G A75U U78A] | 0.2 |
| UAACAGGGGGCCACGGCGGAAGCGUUGUCGUCGCAGCCCCUGUCAGAUUCUUGUGAAUCUGCGAAUUCUGCUGUAUAUCUC [A15G A18G C27G A28U G52U] | 0.29 |
| UAACAGGGGGCCACGGCGGAAGCGUUGACGUCGCAGCCCCUGUCAGAAUCUGGUGAAACUGCGAAUUCUGCUGUAUACCUC [A15G A18G C27G U48A U58A U78C] | 0.22 |
| UAACAGGGGGCCACGGCGGAAGCGUUCACGUAGCAGCACCUGUCAGAUUCUGGUGAAUCUGCGAAUUCUCCUGUAUAUCCC [A15G A18G C32A C38A G70C U80C] | 0.07 |
| UAACAGGGGGCCACGGCGGAAGCGUUCACGUCGCAGACCCUGUCAGAUUCUGGUGAAUCUGCGAAUUCUGCUGCAUAUCUC [A15G A18G C37A U74C] | 0.16 |
| UAACAGGGGGCCACGGCGGAAGCGUUCACGUCGCAGCACCUGUCAGAUUCUGGUGAAUCUGCGAAUUCUGCUGUAUAUCUC [A15G A18G C38A] | 0.44 |
| UAACAGGGGGCCACGGCGGAAGCGUUCACGUCGCAGCUCCUGUCAGAUUCUGGUGAAUCUGCGAAUUCUGCUGUAUAUCUC [A15G A18G C38U] | 0.1 |
| UAACAGGGGGCCACGGCGGAAGCGUUCACGUCGCAGCCGCUGUCAGAUUCUGGUGAAUCUGCGAAUUCUGCUGUAUAUCUC [A15G A18G C39G] | 0.39 |
| UAACAGGGGGCCACGGCGGAAGCGUUCACGUCGCAGCCCCUGUCAGAUUCUGGUGAAUCUGUGAAUUCUGCUGUAUAUCUC [A15G A18G C62U] | 0.1 |
| UAACAGGGGGCCACGGCGGAAGCAUUCACGUCGCAGCCCCUGUCAGAUUCUGGUGAAUCUGCGAAUUCUGCUGUAUAUCUC [A15G A18G G24A] | 0.31 |
| UAACAGGGGGCCACGGCGGAAGCGUUCACAUCGCAGCCCCUGUCAGAUUCUGGUGAAUCUGCGAAUUCUGCUGUGUAUCUC [A15G A18G G30A A75G] | 0.05 |
| UAACAGGGGGCCACGGCGGAAGCGUUCACAUCGCAGCCCCCGUCAGAUUCUGGUGAAUCUGCGAAUUCCGCUGUAUAUCUC [A15G A18G G30A U41C U69C] | 0.12 |
| UAACAGGGGGCCACGGCGGAAGCGUUCACGUCACAGCCCCUGUCCGAUUCGGGUGAAUCUGCGAAUCCUGCUGAAUAUCUC [A15G A18G G33A A45C U51G U67C U74A] | 0.03 |
| UAACAGGGGGCCACGGCGGAAGCGUUCACGUCACAGCCCCUGUCAUAUUCUGGUGAAUCUGCGAAUCCUGCUGUAUUUCUC [A15G A18G G33A G46U U67C A77U] | 0.08 |
